Reference: PubChem BioAssay (NCI)
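Five concentrations, 48 hours, 96-well plates. At the GI50, growth is halved. TGI: total growth inhibition.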

test system: NCI-H322M lung; assay: growth of human tumour cells (NCI), 48 h

| SMILES | TGI [µM] | GI50 [µM] |
| --- | --- | --- |
| Cn1c2c(c3ccccc31)C1C(=O)N(c3ccccc3)C(=O)C1CC2 (configuration not stated) | > 303 |  |
| Cc1ccc(Nc2nc(C)c(C(=O)CC(=O)C(=O)Nc3ccc(Cl)cc3)s2)cc1 | > 100 |  |
| CCCN1C(=O)/C(=C/c2cccc(O)c2)SC1=Nc1ccccc1 | 27.5 | 13.8 |
| CCOC(=O)c1nc2cc(C(F)(F)F)ccc2nc1Nc1ccc(OC)c(OC)c1 | > 100 |  |
| N#Cc1ccc(Oc2nc3ccccc3nc2C(=O)O)cc1 | > 100 |  |
| OCC#Cc1ccccc1C#CCCCCCCC#Cc1ccccc1C#CCO | 33.3 | 18.3 |
| CC1=NN(c2nc(N)nc(COCc3nc(N)nc(N4N=C(C)CC4(C)C)n3)n2)C(C)(C)C1 | > 100 |  |
| O=C(Nc1ccccc1)c1cc(S(=O)(=O)Nc2nc3ncccc3[nH]2)c(SSc2cc(Cl)c(C(=O)Nc3ccccc3)cc2S(=O)(=O)Nc2nc3ncccc3[nH]2)cc1Cl | > 100 |  |
| COc1ccc(C(=O)N/N=C2\C(=O)c3c(C)cc(C)cc3CC2(C)C)cc1 | 90.7 |  |
| COc1cc(C2c3cc4c(cc3CC3COC(=O)N32)OCO4)cc(OC)c1OC (configuration not stated) | > 100 |  |
| C/C(=N\NC(C)(C)C)c1sc(-c2nc(C)c(/C(C)=N/NC(C)(C)C)s2)nc1C | > 100 |  |
| Cn1c2c(c3ccc(-c4ccn[nH]4)cc3c1=O)C(=O)c1ccccc1-2 | > 100 | 7.01 |
| COC(=O)C(CCC1C=CN(S(=O)(=O)c2ccc(C)cc2)C1)N=Cc1ccccc1 (configuration not stated) | > 100 |  |
| CCOC(=O)C(Cc1ccc([N+](=O)[O-])cc1)NC(=O)CC1c2ccccc2-c2ccccc21 (configuration not stated) | > 100 |  |
| Cc1ncc(CO)c(C=NCCCCCCN=Cc2c(CO)cnc(C)c2[O-])c1[O-].[Cu+2] | > 100 |  |
| COC(=O)c1nn(-c2ccccc2)c(=O)cc1N=[N+]=[N-] | > 100 |  |
| O=CC1C(Cl)=Nc2nc3ccccc3n2C1c1ccc([N+](=O)[O-])cc1 (configuration not stated) | 44.4 |  |
| N#Cc1c(-c2ccc(Cl)cc2)cc(-c2ccc(Nc3ccnc4cc(C(F)(F)F)ccc34)cc2)nc1N | 53.2 |  |
| CC1C2C=CC1C(c1c3ccc(=O)c(O)c-3oc3c(O)c(O)ccc13)C2C(=O)O (configuration not stated) | > 100 |  |
| CC1CCN(CCC(=O)CC(c2ccccc2)c2c(O)c3ccccc3oc2=O)CC1 (configuration not stated) | > 100 |  |
| CC(C)=CCC/C(C)=C/CC/C(C)=C/CCN(C)CCO | 23.8 |  |
| CCN(CC)CCNC(=O)c1cn2ncnc(Oc3ccc(NC(=O)Nc4ccc(Cl)c(C(F)(F)F)c4)cc3)c2c1C | 2.94 | 1.58 |

| SMILES | TGI [µM] | GI50 [µM] |
| --- | --- | --- |
| O=C1c2ccccc2C2=Cc3ccccc3C(O)N12 (configuration not stated) | > 100 |  |
| Cc1cn(C2CC(n3cncn3)C(C(C)O)O2)c(=O)[nH]c1=O (configuration not stated) | > 100 |  |
| O=C(Nc1ccc(Cl)cc1)Nc1ccc(Oc2nncc3ccccc23)cc1 | 9.51 | 2.6 |
| Cn1c(=O)c2c3ccccc3c(C(=O)c3ccccc3)n2c2ccccc21 | > 100 |  |
| CCCCCCCCCCCCCCCCCCNc1ccn(C2OC(CO)C(OP(=O)(O)OCC(COP(=O)(O)OCC3OC(n4cc(F)c(NCCCCCCCCCCCCCCCCCC)nc4=O)CC3O)OC(=O)CCCCCCCCCCCCCCC)C2O)c(=O)n1 (configuration not stated) | > 100 |  |
| Cc1ccccc1OCC(COC(=O)Nc1ccccc1)OC(=O)Nc1ccccc1 (configuration not stated) | > 100 |  |
| Cc1cc(C(=O)NC(C)(C)C)cc(C#Cc2ccc3c4c(oc3c2)C(C)(C)c2cc(NS(C)(=O)=O)ccc2C4=O)n1 | > 100 | 2.25 |
| C=C(Nc1ccc(OC)cc1OC)C(=O)Cc1cccc[n+]1[O-] | > 100 |  |
| CCOc1ccc(N=NC2C(=O)N(C(=O)CC(=O)Nc3ccc(C)cc3)N=C2C)cc1 (configuration not stated) | > 100 |  |
| COc1ccc2nc3cccc([N+](=O)[O-])c3c(NCCN(C)C)c2c1 | 0.491 |  |
| CCCCCCCCCCCC1=NCCN1 | > 100 |  |
| O=P(O)(O)OC1OC(CO)C(O)C(O)C1O (configuration not stated) | > 100 |  |
| CSCCC(NC(=O)CNC(=O)C(CC(=O)O)NC(=O)C(NC(=O)C(NC(=O)C(NC(=O)CNC(=O)C(CCC(N)=O)NC(=O)C(CCSC)NC(=O)C(CC(=O)O)NC(=O)C(C)NC(=O)C(C)NC(=O)C(NC(=O)C(CO)NC(=O)C(N)CC(C)C)C(C)O)C(C)C)C(C)C)C(C)O)C(=O)NC(C)C(=O)NC(CO)C(=O)NCC(=O)NC(CC(C)C)C(=O)NC(CC(=O)O)C(=O)NC(CCCCN)C(=O)NC(CC(=O)O)C(=O)NC(Cc1ccc(O)cc1)C(=O)NC(CC(C)C)C(=O)NC(CCCCN)C(=O)N1CCCC1C(=O)NC(CC(=O)O)C(=O)NC(CC(=O)O)C(=O)O (configuration not stated) | > 82.5 | > 82.5 |
| C=C1C[C@@H](O)[C@@H](Br)C(C)(C)[C@@]12C=CC(O)(CBr)CC2 (some centres not stated) | > 100 |  |
| N#CC(C#N)N=Nc1ccc(-c2nc3ccccc3[nH]2)cc1 | > 100 |  |
| Cc1ccc(-c2cc3c(NC(=O)C4CC4)ncnc3o2)cc1 | > 25 | > 25 |
| N#CC(/C(=N/N=C(N)N)C(=O)Nc1ccccc1[N+](=O)[O-])c1nc(-c2ccc([N+](=O)[O-])cc2)cs1 (configuration not stated) | > 100 |  |
| CC1CCCP(=O)(c2ccccc2)CC1 (configuration not stated) | > 100 |  |
| O=S(=O)(O)c1cc(N=Nc2c(O)ccc3ccccc23)c2c(S(=O)(=O)O)cccc2c1 | > 100 |  |
| COc1ccc(/C(Cl)=C(\C=O)c2ccc(Cl)c(Cl)c2)cc1 | 29.4 |  |
| COc1ccc2c(-c3ccc(OCCN(C)C)cc3)c(Oc3ccccc3)c(=O)oc2c1 | 14.3 |  |
| N#Cc1cc(-c2nc3ccc(F)cc3s2)ccc1N | > 100 |  |

| SMILES | TGI [µM] | GI50 [µM] |
| --- | --- | --- |
| Cc1cc(C)c(C#N)c(SCC(=O)c2sc3c(C#N)c(C)cc(C)[n+]3c2[O-])n1 | > 100 | 0.798 |
| CCCOP1(=O)C=CC(Cl)=C(C)C1 (configuration not stated) | > 100 |  |
| CN(C)CCc1ccc(Cl)cc1Cl | > 100 |  |
| Cc1nc2c([nH]c1C)c(O)cc1c3c(nc12)C(=O)CCC3 | > 100 |  |
| Cc1ccccc1C1=C/C(=C(\SS/C(C(=O)c2ccc(OCC(=O)O)c(Cl)c2Cl)=C2\C=C(c3ccccc3C)SS2)C(=O)c2ccc(OCC(=O)O)c(Cl)c2Cl)SS1 | > 100 |  |
| C[C@]12C=CC(=O)C=C1[C@@H](F)C[C@H]1[C@@H]3CC[C@](O)(C(=O)CO)[C@@]3(C)C[C@H](O)[C@@]12F | > 100 |  |
| CC(C)c1cccc(C(C)C)c1NC(=S)N=Nc1cc(C(C)(C)C)c(O)c(C(C)(C)C)c1 | > 100 |  |
| N#Cc1cccc(N2C(=O)c3ccc(C(=O)c4ccc5c(c4)C(=O)N(c4cccc(C#N)c4)C5=O)cc3C2=O)c1 | > 100 |  |
| NC1=NS(=O)(=O)Nc2nc(-c3ccccc3)c(-c3ccccc3)nc21 | > 100 |  |
| Clc1ccc(Nc2nn3c(CCCCCCCCc4nnc5sc(Nc6ccc(Cl)cc6)nn45)nnc3s2)cc1 | > 100 |  |
| COc1cc(C2C3=C(COC3=O)Oc3cc4c(cc32)OCO4)cc(OC)c1OC (configuration not stated) | 21.3 | < 0.0198 |
| CN1C(=O)CC2(C)c3cc(O)ccc3N(C)C12 (configuration not stated) | > 75 | > 75 |
| CC(C)(C)c1ccc2c(c1)C(O)(c1ccccc1)c1cc(C(C)(C)C)ccc1C2(O)C(F)(F)F (configuration not stated) | 5.34 |  |
| O=C(CCc1n[nH]c(=S)o1)Nc1cc(Cl)c(Cl)cc1Cl | > 100 |  |
| NC(=O)NC(=O)c1cccc(NC(=O)CI)c1 | 15.8 |  |
| O=c1ssc2ncccc12 | > 100 |  |
| O=C1c2ccccc2C(=O)c2c1ccc(C(Br)Br)c2Cl | 23.1 | 11.1 |
| Cc1cn(CCCCCCOC(=O)NC(CCCN=C(N)N)C(=O)O)c(=O)[nH]c1=O (configuration not stated) | > 100 |  |
| CC(NC(=O)C(Cc1ccc(OC(=O)c2ccccc2)cc1)NC(=O)OC(C)(C)C)C(=O)NCC(=O)NC(Cc1ccccc1)NC(=O)OCc1ccccc1 (configuration not stated) | > 100 |  |
| COc1cc2c(/C=C3/C(=O)Nc4ccc(O)cc43)c(Cl)[nH]c2cc1C | 13.5 |  |
| CC1CC2=C(C1)C(C1(C)C(=O)CC3C(C1=O)C3(C)C)C(C)C2=O (configuration not stated) | > 100 |  |
